Values marked as one replicate rest on one cluster of the flow cell; about a third of the high ones do not repeat.
Tested on: ATP
Experiment: switch fluorescence ratio, 500 uM ATP over buffer (Cy3 cluster intensity, sum of 5 cycles each) (fold (ratio)); higher = stronger signal-on switching upon ATP binding; sequences stand for … in TCGTCGGCAGCGTCAGATGTGTATAAGAGACAGTTTTTTTTTTTTTTTTTTTTTTTTT…TC
Conditions: aptamer strand: ATP DNA aptamer (quencher-CACCTGGGGGAGTATTGCGGAGGAAGG + anchor), 100 nM annealed; ATP concentration: 500 uM; one replicate
Outline: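 Clusters with intensities outside 100-1000 RFU were excluded. The remaining Cy3-labelled switching-strand clusters on a modified Illumina MiSeq flow-cell had been annealed to 100 nM quencher-labelled ATP aptamer and imaged in selection buffer, then after 15 min with 500 uM ATP at 22 °C, for five cycles separated by NaOH stripping and re-annealing. The fluorescence ratio, averaged per switch-domain sequence, is each cluster's summed target-cycle Cy3 intensity over its summed buffer-cycle Cy3 intensity.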
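Note: ATP exposure 15 min at 22 °C before imaging.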

| Sequence | switch fluorescence ratio |
| --- | --- |
| TCTCAGGTGA | 0.981 |
| GTGCGCAGTA | 1.07 |
| TCGGTCCCAA | 1.07 |
| TTACCACGGC | 1.1 |
| TCTGGGAGTT | 1.01 |
| CGACAGCG | 0.991 |
| TCGCTTCGAA | 1.01 |
| ATAGTCTGAT | 0.953 |
| GGCCATAGCA | 1.05 |
| CAAACAGTTG | 0.974 |
| AGGGTGTGTT | 0.955 |
| ATACTTATTC | 1.02 |
| GGCGTTTAGG | 0.988 |
| ATCCGAGTGT | 1.04 |
| GATACAGGGC | 1.03 |
| GCCTGAATAC | 2.78 |
| GGTCCGTAGA | 0.992 |
| CTCGATTATT | 0.995 |
| TGGGCTCACT | 1.01 |
| TCGTCCTTTC | 1.27 |
| ACATATGTCG | 1.01 |
| ATTGTTCAA | 0.998 |

| Sequence | switch fluorescence ratio |
| --- | --- |
| GGTGAAACGA | 1.02 |
| ACGCATTTAA | 1.34 |
| TGGTTTCATA | 0.988 |
| AATGACAAGT | 1.02 |
| ATTCGTCCCA | 1.04 |
| AAGGGTTTTA | 0.978 |
| GATTTAGAC | 0.993 |
| GAGTCCACAT | 1.27 |
| AAGTGTCGG | 0.987 |
| CGGAGTAGAG | 0.979 |
| GTGCATTCAC | 1.04 |
| ATACTCGGGC | 1.01 |
| GAATGTGGC | 1.05 |
| TGGGCATGCT | 1.05 |
| AATTCAGGTA | 1.05 |
| GCAGCCTAA | 0.996 |
| AAGGTATGGC | 0.979 |
| GATTAGAGGT | 0.964 |
| GGAACCAATT | 0.999 |
| GGGGGCAGTC | 1.02 |
| GATTCGAGCC | 0.989 |
| TTATGGGTTC | 0.996 |

| Sequence | switch fluorescence ratio |
| --- | --- |
| GATTCACCTA | 1 |
| ACGAACTGCG | 1.2 |
| TAAGTCGAGA | 1.04 |
| AGGTCTAACG | 1.03 |
| TCAACCTTCA | 2.12 |
| TTTTTAGACC | 0.991 |
| AGGCAATGAG | 1.08 |
| GGGGTACG | 1 |
| ATCTATACGC | 1.02 |
| GAACGCATT | 2.81 |
| CGTTACGAAG | 1.02 |
| TGTTTATCTG | 0.989 |
| TTGGCGTTG | 0.986 |
| GCCCCTGGCA | 1.03 |
| TTTCCATGCT | 1.04 |
| CACTTAGCTT | 1.12 |
| CTATGAGCCG | 0.86 |
| GCCACACGAG | 1.03 |
| TTGGTAAACA | 0.989 |
| AATTTGCACC | 1.02 |
| CCGGGTGCTT | 2.09 |
| AAGTATCCTA | 1.04 |

| Sequence | switch fluorescence ratio |
| --- | --- |
| CAGAATCGGC | 0.984 |
| CGGTTGAAAC | 0.987 |
| CTGGGAAAGT | 0.994 |
| ATTACTTCG | 1.05 |
| CCATATCTT | 0.986 |
| TTATCTGCTC | 1.02 |
| GCGGTGGCCA | 1 |
| CATAGTTGGG | 0.971 |
| CCGGGCGAAC | 1.64 |
| GAGGGAGAAC | 1.02 |
| TCGGGCATGA | 1.02 |
| TTCTCACATT | 1.02 |
| ACAGGCGCCT | 1 |
| GTCAACAGTG | 1.04 |
| ATCTGGATGA | 0.984 |
| TCGAATCCTG | 0.993 |
| ACACATTCTA | 1.04 |
| CTTTTTGGTG | 1.01 |
| GACGTGTAGG | 1.05 |
